No constants are given. Whether binding was seen depends on the method and setting. Binding seen in cells or lysates may run through a third protein. Some binding calls cover weakened binding; strength is not graded here. For part of these data: Tags and fused reporters may be left off the sequences shown.
Key:
[1] = target: T1, myc-tagged Whi5 (S. cerevisiae) (UniProt Q12416); assay: co-IP; lysate of an asynchronous Whi5-myc culture; IP with anti-myc antibody; blots with anti-myc, anti-Swi6, anti-Swi4, anti-Mbp1
T1 sequence: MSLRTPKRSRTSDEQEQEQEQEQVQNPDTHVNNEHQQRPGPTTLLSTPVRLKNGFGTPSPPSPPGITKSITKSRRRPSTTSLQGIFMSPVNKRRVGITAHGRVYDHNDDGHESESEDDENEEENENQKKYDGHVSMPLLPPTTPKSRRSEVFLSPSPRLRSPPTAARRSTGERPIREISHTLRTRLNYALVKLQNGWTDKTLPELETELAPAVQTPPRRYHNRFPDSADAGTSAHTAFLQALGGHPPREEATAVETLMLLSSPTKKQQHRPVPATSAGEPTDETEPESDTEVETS

Mbp1 (S. cerevisiae) = target: T2, Mbp1 (S. cerevisiae) (UniProt P39678); assay: co-IP; lysate of an asynchronous Nrm1-myc culture; IP with anti-Mbp1, anti-Swi4 or anti-Swi6 polyclonal sera, protein A Sepharose, 2 hours at 4°C; lysis buffer 50 mM Tris-HCl pH 7.5, 1% Triton X-100, 250 mM NaCl; blots with anti-myc, anti-Mbp1, anti-Swi6, anti-Swi4
T2 sequence: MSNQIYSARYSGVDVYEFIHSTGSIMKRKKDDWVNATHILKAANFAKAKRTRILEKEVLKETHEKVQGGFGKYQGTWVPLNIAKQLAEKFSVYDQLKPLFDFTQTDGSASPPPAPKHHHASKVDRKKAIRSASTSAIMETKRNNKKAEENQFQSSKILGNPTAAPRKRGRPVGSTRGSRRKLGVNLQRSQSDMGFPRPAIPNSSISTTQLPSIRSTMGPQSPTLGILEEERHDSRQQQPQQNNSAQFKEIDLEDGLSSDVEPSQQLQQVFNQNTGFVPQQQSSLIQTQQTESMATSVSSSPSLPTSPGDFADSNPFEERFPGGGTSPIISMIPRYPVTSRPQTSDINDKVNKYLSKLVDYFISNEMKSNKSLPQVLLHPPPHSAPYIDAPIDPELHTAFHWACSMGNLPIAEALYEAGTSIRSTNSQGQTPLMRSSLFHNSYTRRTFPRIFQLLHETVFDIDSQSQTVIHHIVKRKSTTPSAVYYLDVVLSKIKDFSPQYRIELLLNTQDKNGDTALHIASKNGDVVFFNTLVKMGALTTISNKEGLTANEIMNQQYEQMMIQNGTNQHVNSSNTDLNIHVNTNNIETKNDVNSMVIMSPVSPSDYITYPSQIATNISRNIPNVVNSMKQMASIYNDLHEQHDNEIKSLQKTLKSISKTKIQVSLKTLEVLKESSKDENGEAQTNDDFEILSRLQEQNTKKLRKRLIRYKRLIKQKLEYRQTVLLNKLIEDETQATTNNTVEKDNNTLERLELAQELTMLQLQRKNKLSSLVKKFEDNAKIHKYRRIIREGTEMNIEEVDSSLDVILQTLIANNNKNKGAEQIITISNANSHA

Swi4 (S. cerevisiae) = target: T3, Swi4 (S. cerevisiae) (UniProt P25302); assay: as above
T3 sequence: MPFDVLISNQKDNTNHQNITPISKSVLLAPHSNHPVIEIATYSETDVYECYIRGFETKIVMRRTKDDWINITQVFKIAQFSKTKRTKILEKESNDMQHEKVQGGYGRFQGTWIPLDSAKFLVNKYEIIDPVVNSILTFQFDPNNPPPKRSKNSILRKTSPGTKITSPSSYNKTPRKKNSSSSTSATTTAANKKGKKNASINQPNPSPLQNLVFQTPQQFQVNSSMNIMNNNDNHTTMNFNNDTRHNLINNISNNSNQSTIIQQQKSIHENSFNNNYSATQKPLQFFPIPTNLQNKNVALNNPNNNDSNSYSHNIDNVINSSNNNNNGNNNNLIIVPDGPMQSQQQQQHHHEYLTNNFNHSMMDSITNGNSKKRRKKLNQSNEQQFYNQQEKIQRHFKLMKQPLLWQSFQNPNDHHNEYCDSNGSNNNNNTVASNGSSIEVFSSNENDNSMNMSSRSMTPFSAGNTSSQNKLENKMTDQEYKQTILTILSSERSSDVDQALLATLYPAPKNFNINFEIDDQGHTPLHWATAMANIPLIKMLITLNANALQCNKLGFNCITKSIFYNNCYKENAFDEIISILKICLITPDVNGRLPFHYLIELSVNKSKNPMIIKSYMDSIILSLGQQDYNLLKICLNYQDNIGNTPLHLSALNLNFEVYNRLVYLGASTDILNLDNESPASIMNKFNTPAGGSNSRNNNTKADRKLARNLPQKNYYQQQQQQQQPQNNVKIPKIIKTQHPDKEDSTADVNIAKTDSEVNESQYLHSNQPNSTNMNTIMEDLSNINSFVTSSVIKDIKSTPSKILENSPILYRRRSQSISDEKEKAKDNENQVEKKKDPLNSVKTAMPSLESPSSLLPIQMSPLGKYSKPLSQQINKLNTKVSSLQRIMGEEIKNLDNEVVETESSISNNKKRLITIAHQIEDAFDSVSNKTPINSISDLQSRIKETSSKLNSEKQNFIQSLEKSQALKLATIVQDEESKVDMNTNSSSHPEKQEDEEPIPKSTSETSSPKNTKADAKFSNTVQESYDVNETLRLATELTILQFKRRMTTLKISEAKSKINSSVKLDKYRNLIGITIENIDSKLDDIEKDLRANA

Measured: binding

B1: Swi6 (protein, UniProt P09959 1-803)
chain: MALEEVVRYLGPHNEIPLTLTRDSETGHFLLKHFLPILQQYHDTGNINETNPDSFPTDEERNKLLAHYGIAVNTDDRGELWIELEKCLQLLNMLNLFGLFQDAFEFEEPETDQDEEDPSHSKLPENKTKSENSKDNISSKRINNLQDMSLDSDAHRELGSPLKKLKIDTSVIDAESDSTPNTARGKPNDDINKGPSGDNENNGTDDNDRTAGPIITFTHDLTSDFLSSPLKIMKALPSPVVNDNEQKMKLEAFLQRLLFPEIQEMPTSLNNDSSNRNSEGGSSNQQQQHVSFDSLLQEVNDAFPNTQLNLNIPVDEHGNTPLHWLTSIANLELVKHLVKHGSNRLYGDNMGESCLVKAVKSVNNYDSGTFEALLDYLYPCLILEDSMNRTILHHIIITSGMTGCSAAAKYYLDILMGWIVKKQNRPIQSGTNEKESKPNDKNGERKDSILENLDLKWIIANMLNAQDSNGDTCLNIAARLGNISIVDALLDYGADPFIANKSGLRPVDFGAGTSKLQNTNGGDENSKMVSKGDYDGQKNGKAKKIRSQLLKNPPETTSLINDVQNLLNSISKDYENETVQYNEKLEKLHKELNEQREELANSREQLANVKQLKDEYSLMQEQLTNLKAGIEEEEESFREESKKLGIIADESSGIDWDSSEYDADEPFKVEFLSDFLEDKLQKNYEGDISKLLEAESKEQIMEQIRNQLPAEKIQSMLPPTVLLKARINAYKRNDKHLTNVLDTISTKQSELENKFRRVLSLCLKIDENKVDNMLDGLLQAISSEDPQDIDTDEMQDFLKKHAS
binds: all assays above
